{"source": "PubChem BioAssay AID485297", "about": "(National Center for Advancing Translational Sciences (NCATS), 2010)", "note": "The whole screen tested about 320,000 compounds, of which about 9,100 (2.8%) were called active. This list was built around the results that the source calls inconclusive (neither active nor inactive); the mix of calls is not that of the screen. Calls come from the whole dose curve; as a rule, active = well fitted activation curve with a large enough effect; inconclusive = small, poorly fitted or top-dose-only effect; inactive = no such curve, though single readings can be large or run the other way. Potencies of inconclusive entries are left out as doubtful fits. Potency is the fitted concentration of half-maximal effect; tags give direction and shape of the fitted curve.", "data": [{"assay": "qHTS Assay for Rab9 Promoter Activators; note: nearly all actives have a fitted effect of over 60% in size", "settings": "Huh7 Rab9 promoter-luciferase reporter, luminescence, 24 h; series mostly up to 9.22 µM", "summary_of_the_method": "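Stable Rab9-luc Huh7, 1500 cells/well, 2 h settle; cmpd in DMSO, 24 h, 37 °C/5% CO2; luciferase reagent 10 min RT; luminescence.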", "values": [{"smiles": "Nc1c(C(=O)c2ccc(Cl)cc2)sc2nc3c(cc12)CCC3", "Potency": "inconclusive [activator, partial curve]"}, {"smiles": "Oc1ccccc1-c1cc(-c2ccccc2)no1", "Potency": "inconclusive [activator, single point]"}, {"smiles": "O=C(CCCCl)Oc1ccc2cc(-c3ccc4ccccc4n3)c(=O)oc2c1", "Potency": "inconclusive [activator, single point]"}, {"smiles": "Cc1ccc(NC(=O)c2ccccn2)c(Br)c1", "Potency": "active: 2.82 µM"}, {"smiles": "COC(=O)C1=C(C(=O)OC)[C@@H]2N(C)c3ccc(OC)cc3[C@@]23C[C@@H](C(=O)OC)N=C3N1", "Potency": "inactive"}, {"smiles": "COc1nc(C)ccc1-c1noc(-c2ccco2)n1", "Potency": "active: 1.26 µM"}, {"smiles": "C#CCOCCOCCOCCNc1nc(N2CCN(C(=O)[C@H]([C@@H](C)CC)n3cc([C@@H](N)CO)nn3)CC2)nc(N2CCN(C(=O)[C@H](CCCCN)n3cc([C@@H](N)CC(C)C)nn3)CC2)n1", "Potency": "inactive"}, {"smiles": "COC(=O)c1ccc(NC(=O)CN2CCN(CC#N)CC2)cc1", "Potency": "inactive"}, {"smiles": "NC(=O)c1ccccc1NC(=O)CN1CCN(Cc2ccccc2)CC1", "Potency": "inactive"}, {"smiles": "CCOC(=O)C1(CCc2ccccc2)CCN(C(=O)CCn2cncn2)CC1", "Potency": "inconclusive [activator, partial curve]"}, {"smiles": "COc1ccc(NC(=O)c2nc[nH]c2C(=O)N(C)Cc2ccccc2)cc1", "Potency": "inactive"}, {"smiles": "CCCNC(=O)c1ccc(-c2nc3ccccc3s2)s1", "Potency": "active: 0.708 µM"}, {"smiles": "COc1cccc(NC(=O)c2ccc3snnc3c2)c1", "Potency": "inconclusive [activator, partial curve]"}, {"smiles": "COc1ccc(-c2cn(Cc3ccc(C(N)=O)cc3)c(-c3ccncc3)n2)cc1", "Potency": "active: 2.51 µM"}, {"smiles": "Cc1cc(C(=O)CN2CC(C)OC(C)C2)c(C)n1-c1ccccc1", "note": "(configuration not stated)", "Potency": "inconclusive [activator, single point]"}, {"smiles": "Cc1ccc(NC(=O)c2ccc(Br)o2)cc1S(=O)(=O)N(C)C", "Potency": "inconclusive [activator, partial curve]"}, {"smiles": "CCCCCc1ccc(-c2ccc(C(=O)O)cc2)nc1", "Potency": "inconclusive [activator, full curve]"}, {"smiles": "O=C(Nc1cccc(Br)c1)c1ccc(OC2CSC2)cc1", "Potency": "active: 2.24 µM"}, {"smiles": "NNC(=O)c1cccc(COc2cccc(Br)c2)c1", "Potency": "inconclusive [activator, partial curve]"}, {"smiles": "COC(=O)c1ccc(-c2ccc(/C=N/NC(=O)Cc3nnc(N)s3)o2)cc1", "Potency": "inconclusive [activator, partial curve]"}, {"smiles": "CCCc1ccc(OCc2nc(-c3ccc(NC(=O)c4ccco4)cc3)no2)cc1", "Potency": "inconclusive [activator, partial curve]"}, {"smiles": "O=C(CSCc1ccccc1)N1CCN(c2ccccc2)CC1", "Potency": "inconclusive [activator, partial curve]"}, {"smiles": "CCOC(=O)COc1ccccc1/C=C1/NC(=O)NC1=O", "Potency": "inactive"}, {"smiles": "O=C(O)CCn1c(SCc2ccccc2)nc2ccccc21", "Potency": "inconclusive [activator, single point]"}, {"smiles": "CCOC(=O)c1sc2nc(NC(=O)C(C)(C)C)sc2c1C", "Potency": "active: 1.26 µM"}, {"smiles": "CNC(=O)c1ccc(-c2ccc(Cl)c(Cl)c2)s1", "Potency": "inconclusive [activator, partial curve]"}, {"smiles": "c1csc(-c2nc3nc4ccccc4nc3n2Cc2ccc3c(c2)OCO3)c1", "Potency": "inconclusive [activator, single point]"}, {"smiles": "Cc1ccc(C)n1-c1ccc(N2CCOCC2)nc1", "Potency": "inactive"}, {"smiles": "Cc1ccc2c(c1)COc1c3ccc(C(=O)NCC4CC4)cc3nn1-2", "Potency": "inconclusive [activator, partial curve]"}, {"smiles": "O=C1/C(=C\\c2ccco2)SC(=S)N1Cc1ccccc1", "Potency": "inactive"}, {"smiles": "Cc1cc(NC(=O)COc2ccccc2C)ccc1NC(=O)c1ccco1", "Potency": "inconclusive [activator, single point]"}, {"smiles": "O=C(Nc1ccc2ccccc2c1)c1cccc([N+](=O)[O-])c1", "Potency": "inconclusive [activator, single point]"}, {"smiles": "CC(=O)c1sc(N/N=C/c2cccc([N+](=O)[O-])c2)nc1C", "Potency": "inconclusive [activator, partial curve]"}, {"smiles": "CCOc1ccc2nc(NS(=O)(=O)c3ccc(NC(C)=O)cc3)sc2c1", "Potency": "inactive"}, {"smiles": "CN(Cc1nc(-c2ccccc2)no1)C1CCOCC1", "Potency": "inconclusive [activator, partial curve]"}, {"smiles": "Cc1ccc2c(c1C)NC(=O)CC(c1ccccc1O)=N2", "Potency": "inconclusive [activator, single point]"}, {"smiles": "COc1cnn(-c2ccc(C)cc2)c(=O)c1SCc1ccccc1", "Potency": "inconclusive [activator, partial curve]"}, {"smiles": "Cc1ccc(CCNC(=O)Cn2ccc3cc(S(=O)(=O)N4CCCC4)ccc32)cc1", "Potency": "inactive"}, {"smiles": "C/C(=N\\NC(=O)c1cccs1)c1ccc2c(c1)OCO2", "Potency": "inconclusive [activator, partial curve]"}, {"smiles": "COc1ccc(Cc2nc(-c3cccc(C)c3)no2)cc1", "Potency": "inconclusive [activator, partial curve, poor fit]"}, {"smiles": "C=CCn1c(SCC(=O)O)nc2sc(CC)cc2c1=O", "Potency": "inconclusive [activator, single point]"}, {"smiles": "CC(=O)N1CCN(c2nc3ccc([N+](=O)[O-])cc3s2)CC1", "Potency": "inconclusive [activator, single point]"}, {"smiles": "O=C(Nc1cccc(Cl)c1)N1CCN(Cc2ccccc2)CC1", "Potency": "inconclusive [activator, partial curve]"}, {"smiles": "CCOC(=O)NC(=O)/C(C#N)=C\\Nc1ccc(Cl)cc1Cl", "Potency": "inconclusive [activator, partial curve, poor fit]"}, {"smiles": "CCc1ccc(-c2ccc(SCc3ccccn3)nn2)cc1", "Potency": "inconclusive [activator, full curve]"}, {"smiles": "CCc1ccc(NC2=NC(C(=O)c3ccccc3)CC(=O)N2)cc1", "note": "(configuration not stated)", "Potency": "inactive"}, {"smiles": "Oc1oc(-c2ccccc2Br)nc1C=Nc1ccc(Br)cn1", "Potency": "inactive"}]}]}
